In the RNAGym collection of RNA variant scans (doi:10.7554/elife.90254) one finds self-cleavage data, which are given here for 167 variants.

The source gives no read counts; variants with many changes may rest on few reads.

B1: LINE1-full (parent)
chain: UACGUAGGUGGUUUUCCCCUGAUAGUGCUAAGGGGGCCUGGAAGUUUGGACUGGGCAGAGCUCAACACAGCGUGGCAAAGUGGCUGUGGCUAGACUGCCUCUCUGGAUUCCUCGUCACUCAGCAGGGCAUCUCUGAGAGAAAUGCC

This data set covers variants of B1. The experiment in a line: self-cleavage, relative activity (ratio to wild type); higher = more cleavage; in vitro, sequencing; the parent is a self-cleaving ribozyme.
For U5C U134C G144A, the self-cleavage is 1.47.
As to U5C U15C G32A U47C, the self-cleavage is 1.17.
On to A6G A22G U26C, for which the self-cleavage turned out to be 0.97.
Regarding U5C U47C A77U A124G A141G, the self-cleavage was 2.04.
Next, A6G U23C U62A C111G G144A: 0; A6U A43G U85C U119A: 0; A6U A59G A64U: 0.04.
With A6G U20C A67G the figure was 0; with A6G U13A U96C, 0.08.
Next, A6C A24G G36A: 0.61.
With A6U U12C U23C, the self-cleavage was 1.33.
A6G A43G A78G G88A U104C: the self-cleavage was 0.36.
Next, A6G U13C U26C G33A G49A: 0.77; A6G G60C C84U A121U G127A U130C A140G: 0.05.
For the variant A6G C51U A65G U85A U96A, the self-cleavage came out at 0.17.
Consider A6G G21A G36A A67C A140G, for which the self-cleavage came to 0.12.
On to A6U U15C A50G U81A, for which the self-cleavage is 1.44.
With A6U A31G A138G the figure was 0.75; with A6U U45A G53A C103U A141G, 0.78; with A6U A50G U85A U87C, 0.54.
For the variant A6G C123A U132A, the self-cleavage is 0.97.
For U5C G55C G88A A142G, the self-cleavage came out at 0.09.
For A6U U52A C111U, the self-cleavage was determined as 1.02.
For A6U U26C U39C A140G, the self-cleavage came out at 1.21.
Next, A6G A43G U115A G126A A138G: 0.98; A6U C17U C18U: 0.44; A6C U29G A64U A107G: 0.81.
Turning to A6G U15C A94G, the self-cleavage was 0.19.
U5C G49A U81C: the self-cleavage was found to be 0.69.
Take A6U C111A A140G: the self-cleavage is 0.61.
For the variant A6G U9A U13C U115C, the self-cleavage came to 1.5.
With A6G A64G U73C the figure was 0.79; with A6U A50G A78G, 0; with U5C U9C U14C A77G, 0.
Take U5C C56G A59G U100A A136G: the self-cleavage stood at 0.
Take U5C A94C A140G A142G: the self-cleavage amounted to 0.16.
Next, A6G U12C U52C G125U: 0.63; A6G U52C A59U U132C A141G: 1.84; A6G A22G A42C C133U A140G: 0.46.
For U5C U26C G33A U112G C123U, the self-cleavage is 1.51.
Next, U5C A94G A138G: 0.88; U5C U45G A77G U115A U130A: 2.18.
Take A6G U14C A92G: the self-cleavage is 0.4.
Next, A6G U12A U20C G33U A67G U143C: 0.48; A6G U85A A136U: 0.04.
Consider A6U G35A A59G G127A A136U, for which the self-cleavage stood at 0.09.
A6G U12C G70A U85C: the self-cleavage was 0.7.
Next, U5C G8A U14C A31U: 0.75.
For U5C U46C A50U A138U, the self-cleavage is 1.39.
Turning to A6U G83A U119C U134C A136U, the self-cleavage turned out to be 1.84.
A6G A22G G44A U96C: the self-cleavage stood at 0.17.
Next, A6U A42G G127A: 0.73.
As to U5G U45C U108C, the self-cleavage is 0.98.
With A6G U47C A129G, the self-cleavage turned out to be 0.
As to A6G U9A U102C A138U, the self-cleavage is 0.9.
Turning to A6U C19U A69U G70U, the self-cleavage turned out to be 0.16.
U5C G33U A42G A78G U109C: the self-cleavage came out at 0.47.
On to A6G U23C A59G A140G, for which the self-cleavage worked out at 1.02.
Next, A6G U109A A117G U132C: 0; U5C G97A A142G: 0.25; A6G U9A U26C U62A: 0.33.
With A6G U12A U109C the figure was 1.1; with A6C U14A U87C, 0.39; with U5C U26C C28A A129G A142G, 1.39.
With A6U U87A U115A the figure was 0.17; with A6U U12A U15A, 0.89; with U5C G32A U62C, 0.16.
U5C C19U A31G: the self-cleavage stood at 0.67.
On to A6G A65U U102G U119C, for which the self-cleavage is 1.64.
As for U5C U26C G74A C90A, the self-cleavage came out at 0.11.
In the case of A6G C38G A43G U87G, the self-cleavage came to 0.66.
In the case of A6G G34A A65G, the self-cleavage came out at 0.08.
Turning to A6G A64G U130C U134A A140U, the self-cleavage amounted to 0.44.
Next, A6G U12A A78G A142G: 0.32; A6G U20C G74A A92G A136G: 0.17; U5C U87A A117G: 0.77.
Next, U5C G41U A136G: 1.46; A6G U52A G75A A141G: 1.04.
As for U5C U14C C19U U45G U73A U96A A142G, the self-cleavage turned out to be 0.
Take A6G U130C A136G: the self-cleavage came to 1.15.
With U5C A57G A59U the figure was 0.6; with U5C A65G U100A A117G U132C, 0.
Next, A6U U9A U26G: 1.
Turning to U5G G60C G72C A77U U115C, the self-cleavage came out at 0.08.
Next, U5C G33A A142G: 1.6; A6G U14C A124U: 0.57.
Take A6G A50G G97U: the self-cleavage came to 0.
With U5C A43G C95A U115C the figure was 0.14.
For the variant A6G C113A A138G, the self-cleavage came to 0.38.
As for A6G U15G G89U C90A, the self-cleavage came out at 0.
With A6G U108A C111U A138G the figure was 1.62; with U5G C19U U62A A79U, 0.27; with A6U A31U U91C U119C, 1.31.
With A6U U15A G58U C63A U112C A138G, the self-cleavage came to 0.12.
Next, A6G U39A G74U: 0.73.
Take A6U U47A U109C U143C: the self-cleavage is 1.13.
Next, A6G U73C A140G: 2.94.
Next, A6G A22G A42G: 0.15.
Next, A6G U14C G40A U108C: 0.57; A6U U15C C63U U91C: 0.32; U5C A50U U52C C113U: 0.4.
As for A6G U108C A140G, the self-cleavage came out at 2.7.
Turning to U5G U47C C103U, the self-cleavage came to 0.63.
In the case of U5C A43U U87C U115G A124G, the self-cleavage stood at 0.
For U5C U81C C145U, the self-cleavage was 0.92.
With U5C U13C C28G the figure was 1.09.
Next, A6G U20C U102C U119C G127A A136G A141G: 0.84.
As to A6G G60A U87G U104C A117U U119A, the self-cleavage amounted to 0.1.
In the case of A6G A78G A121G, the self-cleavage worked out at 1.27.
With U5C U47C C113A C131U A140G the figure was 0.74; with A6G U87C A124G, 0; with U5C U20A U96A U112G A129G, 0.
With U5C C111U A121G C131A the figure was 1.41; with G7A A22G U47A A77U, 0.47.
With U5C U112C A121G the figure was 1.18.
In the case of A6G U46C U96A C111U A124G, the self-cleavage turned out to be 0.2.
Next, U5C G27A U102C: 1.27; U5G G34U U104C: 1.57.
In the case of A6U U13G U26A U39C A65G, the self-cleavage worked out at 0.
Consider A6U U13C A121U, for which the self-cleavage stood at 1.19.
Next, U5C U73C U85C: 0.54; A6G A65G A94G: 0.26.
Next, A6U U102C U132C: 1.37; A6U A78C U143C: 2.51.
With U5C U52A A79G the figure was 1.21; with A6G U12C A30G G34U U62A A136U, 0.1.
Turning to U5C U15A A22G U143C, the self-cleavage is 0.98.
On to U5C U29C U62A U130A, for which the self-cleavage was 0.1.
With U5G U45G U112C A138G the figure was 0.27.
As for U5G A6G A77U U132G U143A, the self-cleavage is 0.61.
Regarding U5C U12A G54A A65G C71U, the self-cleavage was 0.07.
Next, U5C U45A C71U A121G: 1.18; A6U U15C A22G G40U A59G: 0.
In the case of A6G A31G C84A, the self-cleavage is 0.13.
Next, A6C U45C A77G: 1.88; A6U U132C U134C: 1.1.
As to A6G C71A U81A A94G A140G, the self-cleavage is 0.21.
Next, A6G U12G A140G: 0.95; A6G C18U G114U A117G: 0.97.
Next, A6G A43G C66A A69U: 0.14.
Take A6G U87C A142G: the self-cleavage amounted to 0.
As for A6G U12G A42G A64G U119A, the self-cleavage was found to be 0.
On to A6G U29C U39G A77G U109C, for which the self-cleavage was 1.84.
As for A6U A141G A142U, the self-cleavage came out at 1.06.
In the case of A6G A31U A65G C66A, the self-cleavage was found to be 0.33.
For the variant A6G G88A U100C U119C, the self-cleavage stood at 0.19.
A6U U45C A57U C71U A94G U104A: the self-cleavage turned out to be 0.3.
With A6G A22G A57G U102C U104A the figure was 0; with U5C A77U C133U, 0.93; with A6G A43G U85C, 0.
As for U5C U23A U100C U112C, the self-cleavage was determined as 1.25.
With A6G U81A U91C the figure was 0.42; with U5C U9A U130C, 0.8.
Next, U5C U13C A79U U104C: 0.96; A6G G41A U52A U112C U143C: 1.66.
Consider U5C G36A A59U A64G G86U, for which the self-cleavage was 0.05.
Consider A6U U14C C63U A124G, for which the self-cleavage is 0.33.
With U5C U13C U52C the figure was 0.92; with U5C U9C C37G, 1.2; with U5C U13C G44A U45A A59G C90U, 0.09.
Next, A6U G80A U143C: 1.19.
Next, A6G A24G U130C U132C: 0.27; A6U A79G U96C A136U: 0.26.
Regarding U5C G10A U87C A107G C118A, the self-cleavage was determined as 1.36.
Next, A6U U39A U81C U143A: 0.31; A6G U14C A77G U96C: 0; U5C G70C A141U: 0.3.
